Assay results reported in the antibiotic and cytotoxicity screens of Wong et al. (2023).
The other results are listed elsewhere or left out.

How the values were obtained:
[1] = test system: HSkMC (human skeletal muscle cells); assay: cytotoxicity call (relative viability < 0.9); details: 10 µM
[2] = test system: HepG2; assay: cytotoxicity call (relative viability < 0.9); details: 10 µM
[3] = test system: S. aureus RN4220; assay: growth inhibition call (relative growth <= 0.2); details: 50 µM

Row | Structure (SMILES) | cytotoxicity call [1] | cytotoxicity call [2] | growth inhibition call [3]
1 | Cc1noc(C)c1NC(=O)N(C)C[C@H]1Oc2ccc(NS(=O)(=O)c3cccs3)cc2CC(=O)N([C@H](C)CO)C[C@@H]1C | inactive | inactive | inactive
2 | C[C@H]1CN([C@@H](C)CO)C(=O)c2cc(NC(=O)Nc3cccc4ccccc34)ccc2O[C@H]1CN(C)C(=O)Nc1ccc2c(c1)OCO2 | inactive | inactive | inactive
3 | COc1cccc(NC(=O)N(C)C[C@@H]2Oc3ncc(C#Cc4cccnc4)cc3C(=O)N([C@H](C)CO)C[C@H]2C)c1 | inactive | inactive | inactive
4 | C[C@H](CO)N1C[C@H](C)[C@H](CN(C)C(=O)Cc2ccccn2)Oc2ncc(C#CC3CCCCC3)cc2C1=O | inactive | inactive | inactive
5 | CN(C)C(=O)C[C@H]1C=C[C@@H](NC(=O)C2CCOCC2)[C@H](CO)O1 | inactive | inactive | inactive
6 | O=c1[nH]c2ccccc2n2cnnc12 | inactive | inactive | inactive
7 | CC(C)(C)S(=O)N1Cc2cc(C(=O)NCc3ccc4c(c3)OCO4)nc(-c3cccc(C#CCC4CCCC4)c3)c2[C@@H]1CCO (some centres undefined) | inactive | inactive | inactive
8 | CC(C)N1C[C@H](CNCc2ccc(Oc3ccccc3)cc2)Oc2c(NC(=O)c3ccncc3)cccc2C1=O | inactive | inactive | inactive
9 | C[C@@H]1CCCCO[C@@H](CN(C)Cc2ccc(C(=O)O)cc2)[C@@H](C)CN([C@@H](C)CO)C(=O)c2cc(NC(=O)Nc3ccc(F)cc3)ccc2O1 | inactive | inactive | inactive
10 | CN1CCN(C(=O)c2ccc(N)cc2)CC1 | inactive | inactive | inactive
11 | O=C(C[C@@H]1CC=CCCC(=O)OC[C@H](Cc2c[nH]c3ccccc23)NC1=O)N[C@@H](CO)Cc1ccccc1 | inactive | inactive | inactive
12 | Cc1noc(C)c1NC(=O)Nc1ccc2c(c1)C(=O)N([C@@H](C)CO)C[C@H](C)[C@@H](CN(C)C(=O)Nc1ccc(F)cc1)OCCCC[C@@H](C)O2 | inactive | inactive | inactive
13 | COCC(=O)N(C)C[C@@H]1Oc2cc(C#CCC3CCCC3)ccc2S(=O)(=O)N([C@H](C)CO)C[C@H]1C | inactive | inactive | inactive
14 | O=C(Oc1cccc2cccnc12)c1ccccc1 | inactive | active | inactive
15 | C[C@@H]1CN([C@@H](C)CO)C(=O)Cc2cc(NC(=O)CCCN(C)C)ccc2O[C@@H]1CN(C)Cc1ccc(Oc2ccccc2)cc1 | inactive | active | inactive
16 | C[C@@H]1CCCCO[C@@H](CN(C)C(=O)Nc2ccc3c(c2)OCO3)[C@H](C)CN([C@@H](C)CO)C(=O)c2cc(NS(=O)(=O)c3ccc(Cl)cc3)ccc2O1 | inactive | inactive | inactive
17 | CC(C)Cc1ccc([C@@H](C)c2nc(-c3cccs3)no2)cc1 | inactive | inactive | inactive
18 | C[C@@H]1CN([C@H](C)CO)C(=O)Cc2cc(NC(=O)NC3CCCCC3)ccc2O[C@@H]1CN(C)S(C)(=O)=O | inactive | active | inactive
19 | Cc1c(C#N)c(Sc2ccccc2Cl)nc2ccccc12 | inactive | inactive | inactive
20 | CC(C)NC(=O)Nc1ccc2c(c1)C(=O)N([C@H](C)CO)C[C@H](C)[C@@H](CN(C)S(=O)(=O)c1cccs1)O2 | inactive | inactive | inactive
21 | Cc1ccc(S(=O)(=O)N(C)C[C@@H]2Oc3ccc(NS(=O)(=O)c4cn(C)cn4)cc3C(=O)N([C@H](C)CO)C[C@H]2C)cc1 | inactive | inactive | inactive
22 | C[C@H]1CN([C@@H](C)CO)C(=O)c2cccc(NC(=O)C3CCCCC3)c2O[C@@H]1CN(C)S(=O)(=O)c1cn(C)cn1 | inactive | inactive | inactive
23 | O=C(Cn1ccnc1[N+](=O)[O-])NCCO | inactive | inactive | inactive
24 | C[C@H](CO)N1C[C@H](C)[C@H](CN(C)Cc2ccc(F)cc2)Oc2ncc(C#Cc3cccnc3)cc2C1=O | inactive | active | inactive
25 | COc1cccc(S(=O)(=O)N(C)C[C@H]2OCc3cn(nn3)CCCC(=O)N([C@H](C)CO)C[C@H]2C)c1 | inactive | inactive | inactive
26 | CN1C2CCC1CC(OC(c1ccccc1)c1ccccc1)C2.CS(=O)(=O)O (centres undefined) | inactive | active | inactive
27 | CO/N=[N+](\[O-])NC(C)C | inactive | inactive | inactive
28 | C[C@@H]1CN([C@H](C)CO)C(=O)c2cccc(NC(=O)C3CC3)c2O[C@@H]1CN(C)C(=O)Nc1ccc2c(c1)OCO2 | inactive | inactive | inactive
